Whole data set: some 110,000 compounds, median “z-score” near -0.1, cut for the highest 2% near 2. Some of the results follow. Activity calls are given as the source filed them.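 How the source made its calls: active means z-score in the third read window above 3 or below -3; inactive means the rest.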
These compounds were tested against Metabotropic glutamate receptor 8 (Rattus norvegicus) (UniProt P70579) (assay: mGluR8 Gi/Go-coupled signaling modulation – cell-based, rat, thallium flux, HTS, primary screen (AID 488969)). Conditions: HEK293 rat mGluR8, GIRK (G protein-gated inwardly rectifying potassium channel) thallium flux, FluoZin2; at 10 µM; stronger effect = higher value; submaximal glutamate (EC20) added with thallium.
UniProt P70579, sequence (P70579 whole entry, looked up): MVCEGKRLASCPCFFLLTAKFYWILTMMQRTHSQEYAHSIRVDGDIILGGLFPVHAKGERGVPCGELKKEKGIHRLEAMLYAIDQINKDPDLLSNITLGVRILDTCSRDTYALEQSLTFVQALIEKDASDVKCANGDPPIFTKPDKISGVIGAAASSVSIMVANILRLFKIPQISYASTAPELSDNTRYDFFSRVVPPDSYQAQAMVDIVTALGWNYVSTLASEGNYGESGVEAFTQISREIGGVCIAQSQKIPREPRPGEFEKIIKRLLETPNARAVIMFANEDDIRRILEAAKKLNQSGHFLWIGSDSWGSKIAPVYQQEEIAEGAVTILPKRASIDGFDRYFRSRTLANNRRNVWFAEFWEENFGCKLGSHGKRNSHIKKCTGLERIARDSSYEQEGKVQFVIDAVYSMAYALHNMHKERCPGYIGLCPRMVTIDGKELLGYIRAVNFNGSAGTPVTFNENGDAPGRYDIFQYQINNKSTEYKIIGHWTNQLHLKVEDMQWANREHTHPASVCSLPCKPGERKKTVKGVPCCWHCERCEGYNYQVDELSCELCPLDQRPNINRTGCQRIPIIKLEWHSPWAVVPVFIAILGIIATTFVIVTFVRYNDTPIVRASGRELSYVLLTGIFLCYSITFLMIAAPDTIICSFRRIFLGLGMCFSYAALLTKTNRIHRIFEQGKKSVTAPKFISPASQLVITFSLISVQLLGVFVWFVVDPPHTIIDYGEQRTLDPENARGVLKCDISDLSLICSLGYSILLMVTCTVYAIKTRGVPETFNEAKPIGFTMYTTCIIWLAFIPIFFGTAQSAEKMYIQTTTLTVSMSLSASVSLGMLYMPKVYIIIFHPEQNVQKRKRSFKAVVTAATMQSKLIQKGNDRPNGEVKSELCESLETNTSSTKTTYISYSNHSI

Structure (SMILES) | z-score
Cc1nc2ccccc2c2c1C(=O)N(C1CCCCCCC1)C2=O | -0.105
O=C(NC1=NCCS1)c1cc(-c2cccc(Br)c2)nc2ccccc12 | -0.204
Cc1ccc(N=Cc2sc(O)c3ccccc23)c(C)c1 | -0.00761
O=c1c2[nH]c3ccccc3c2ncn1CCCn1ccnc1 | 0.367
Cc1c(C)n(C(=O)CN2CCN(c3ccccc3)CC2)c2ccccc12 | 0.000165
O=C1N=C2SCCN2/C1=C\c1ccccc1Cl | -0.167
CC1CC(C)CN(C(=O)CNS(=O)(=O)c2ccc(Br)s2)C1 (configuration not stated) | -0.102
COc1ccc(OC)c(Nc2nc(C3CC3)nc3c2nnn3Cc2ccccc2)c1 | -0.135
COc1cccc(-n2c(SCC(N)=O)nnc2-c2c[nH]c3ccccc23)c1 | -0.478
CN=c1scc(-c2ccc(Cl)cc2)n1C | 0.283
COc1ccccc1/C=N/NC(=O)C1=NNC(c2ccccc2)(c2ccccc2)C1 | -0.64
CCCCCCCNC(=O)c1ccc(N2CCC3(CC2)OCCO3)c([N+](=O)[O-])c1 | -0.646
CCOC(=O)c1cc2c(nc1NC(=S)Nc1ccccc1)CC(C)(C)OC2 | -0.292
O=C(Nc1ccc2snnc2c1)N1CCSCC1 | 0.442
Oc1ccc(-c2csc(NCc3ccco3)n2)cc1 | -2.16
Cn1cc(C(=O)NCN2CCCCC2)c2ccccc21 | -0.153
Cc1nn(CCc2n[nH]c(=S)n2C2CCCCC2)c(C)c1Br | -0.451
COc1ccc(CCC(=O)N2CCc3ccccc32)cc1 | 0.333
O=C1C=C(NCc2ccc(Cl)c(Cl)c2)CC1 | -0.436
CC(C)c1ccccc1NC(=S)NCc1ccccc1F | -0.148
COc1ccc(-c2oc(NC(=O)c3ccc(C)cc3)c(C#N)c2-c2ccc(OC)cc2)cc1 | -0.19
CCn1c(-c2ccccc2)c[nH]c1=S | 0.254
O=C1C2CCCN2c2ccc(S(=O)(=O)N3CCOCC3)cc2N1Cc1ccccc1F (configuration not stated) | 1.76
Cc1c(C(=O)Nc2ccc3c(c2)OCO3)sc2ncn(CC(=O)N3CC(C)CC(C)C3)c(=O)c12 (configuration not stated) | -0.047

Structure (SMILES) | z-score
OC(c1ccc(OCc2ccccc2)cc1)c1nnc(-c2ccccc2)o1 (configuration not stated) | -0.346
O=C(CSc1nc2ccccc2c(=O)[nH]1)NCc1ccc(Cl)cc1 | 0.173
COc1cccc(/C(O)=C2/C(=O)C(=O)N(Cc3cccnc3)C2c2ccco2)c1 (configuration not stated) | -0.0278
COc1ccc(N2CSC3=C(C#N)C(c4cc(OC)c(OC)cc4OC)CC(=O)N3C2)c(OC)c1 (configuration not stated) | -0.516
N#CC1=C2SCN(c3ccccc3)CN2C(=O)CC1c1c(Cl)cccc1Cl (configuration not stated) | -0.113
Cc1ccc(-c2nc(N=Nc3ccc(O)cc3)n[nH]2)cc1 | -0.269
COC(=O)c1ccc(NC(=O)c2ccc(CN3CCOCC3)cc2)cc1 | 0.716
CC1C(=O)C(C)C(c2cccs2)NC1c1cccs1 (configuration not stated) | -0.819
O=C(COC(=O)c1ccc(CNS(=O)(=O)c2ccc(F)c(Cl)c2)cc1)NC1CCCCCCC1 | -0.299
O=C(Nc1cccc(Cl)c1Cl)C1CC(=O)N(c2ccc(Br)cc2)C1 (configuration not stated) | 0.289
CC(C)NC(=O)c1cc(-n2cnnc2)ccc1Cl | -0.0712
O=C(O)c1ccc(NC(=O)C2CCCCC2)cc1 | 0.0879
COc1ccc(Cn2cnc3sccc3c2=O)cc1 | -0.167
Cc1c(C(=O)O)sc(=S)n1CCOc1ccccc1 | -0.832
Cc1cccc(NS(=O)(=O)Cc2ccccc2)n1 | 0.436
CC(=O)Nc1ccc(NC(=O)CN(c2ccc(F)cc2)S(=O)(=O)c2ccc3c(c2)OCCO3)cc1 | 0.203
CNCc1ccccc1Sc1cc(O)ccc1O | 0.0226
CCCc1c(C)[nH]c2ccc(NC(C)=O)cc2c1=O | -0.379
CCOC(=O)C1CN(S(=O)(=O)c2ccc(C)cc2)C1 | -0.116
CCCC(C(=O)N1CCOCC1)N1C(=O)C2C3C=CC(C3)C2C1=O (configuration not stated) | 0.0586
COc1cc(C2CC(=O)C=C(O)C2)cc(OC)c1OC (configuration not stated) | -0.099
COCCNC(C(=O)Nc1ccc([N+](=O)[O-])cc1Br)c1ccccc1 (configuration not stated) | 0.633
c1ccc2c(c1)nc(-c1ccncc1)n1nnnc21 | -0.126
O=C(CSc1nnc2ccccn12)Nc1nsc(-c2ccccc2)n1 | active: 3.63

Structure (SMILES) | z-score
O=C(CSc1nnc(-c2cccs2)o1)N1CCc2ccccc21 | -0.479
CNC(=O)C1Cc2ccccc2CN1S(=O)(=O)c1cccs1 (configuration not stated) | -0.206
COc1ccc(C(CNC(=O)c2ccc(N3CCCC3=O)cc2)N(C)C)cc1 (configuration not stated) | 0.151
CCn1c(=N)n(CC(O)COc2cccc(C)c2)c2ccccc21 (configuration not stated) | 0.778
O=C(Nc1ccccc1N1CCOCC1)c1ccc2ccccc2n1 | 0.337
CCOc1cc(/C=N/NC(=O)COc2ccc(Cl)cc2)ccc1OS(=O)(=O)c1ccccc1 | -0.111
Cc1ccc(Cc2nc(-c3cccnc3)no2)cc1 | -0.166
CC(=O)Cc1nsc(NC(=O)c2cn(-c3ccccc3)nc2-c2ccc(Br)cc2)n1 | 0.229
COc1cccc(C(=O)NCC(=O)N/N=C/c2cccs2)c1 | 0.0591
O=C(O)c1ccccc1-c1ccccc1C(=O)NCc1ccco1 | 0.227
CC1CC(=O)C2=C(C1)OC(N)=C(C#N)C2c1coc2ccccc2c1=O (configuration not stated) | -0.233
CC1CCN(CC(C)CNC(=O)c2cc(-c3ccccn3)nc3ccccc23)CC1 (configuration not stated) | -0.0396
Cc1c(C(=O)NC2=NCCS2)oc2ccccc12 | 0.411
COc1ccc(-c2cc(C(F)(F)F)n3ncc(C(=O)NCC4CCCO4)c3n2)cc1 (configuration not stated) | -0.921
O=C(NCC(=O)N(Cc1ccccc1)C(C(=O)NC1CCCC1)c1ccncc1)c1ccco1 (configuration not stated) | 0.158
CC(C)Oc1ccc(C2C(C(=O)c3ccco3)=C(O)C(=O)N2CCCN(C)C)cc1 (configuration not stated) | 0.152
COC(=O)C1=C(C)Nc2ncnn2C1c1cccnc1 (configuration not stated) | -0.0304
Cc1ccc(C)c(NC(=O)CSc2nnc(-c3ccccc3)n2N)c1 | 0.11
Cc1ccc(S(=O)(=O)c2cc3c(=O)n4ccccc4nc3n(CC3CCCO3)c2=N)cc1 (configuration not stated) | 0.97
CC(O)C(NS(=O)(=O)c1ccc(Cl)cc1)C(=O)OCC(=O)N1CCN(c2ccccc2)CC1 (configuration not stated) | 0.0764
CCn1c(SCCC#N)nnc1-c1ccncc1 | -0.263
O=C1CSC(c2ccccn2)N1c1ccccc1 (configuration not stated) | -0.159
COc1ccc(NC(=O)C2CCN(S(C)(=O)=O)CC2)cc1 | -0.219
CCC(C)(C)n1nnnc1C(c1ccc(OC)c(OC)c1)N1CCN(c2cccc(OC)c2)CC1 (configuration not stated) | -0.135

Source: PubChem BioAssay AID488969 (Vanderbilt High Throughput Screening Facility, 2010)
